System: HGF-Erk-SRE pathway
Assay: SRE luciferase reporter assay of aMD4dY-leucine zipper fusion dimers (Example 2)
Assay type: cell-based
Conditions: HEK293E cells with SRE reporter; cell-free expression reaction solution at 25- to 625-fold dilution; overnight stimulation; HGF 0 to 100 ng/mL as comparator; FIGS. 8-13
Procedure: The dimer of each aMD4dY-leucine zipper fusion was evaluated by luciferase assay. To 25 μL of Opti-MEM medium (Thermo Fisher Scientific), 0.6 μL of Attractene Transfection Reagent (QIAGEN) was added and incubated at room temperature for 5 minutes. To the above mixed solution, a mixed solution of 25 μL of Opti-MEM and 1 μL of SRE reporter vector (QIAGEN) was added and incubated at room temperature for 20 minutes. This mixed solution was added to a 96-well plate, HEK293E cells were seeded thereon at 40,000 cells/well, and incubated overnight at 37° C. in a 5% CO2 incubator. […]
Dual-Luciferase Reporter Assay System (Promega) was used for signal intensity detection. […] Activation of the HGF-Erk-SRE pathway was quantified by detecting Firefly luciferase luminescence from cell lysates with a plate reader. Subsequently, 50 μL of Glo & Stop reagent solution was added, and after 10 minutes, luminescence of Renilla luciferase, an internal standard, was detected to quantify the cell count. The signal activity of each sample was quantified as SRE activity=(luminescence intensity of Firefly luciferase)/(luminescence intensity of Renilla luciferase). […]

- relative reporter activity (SRE activity): found to have signal activation ability
B1: aMD4dY-PA8-GCN4-cys: aMD4dY-GCN4 leucine zipper fusion, SEQ ID NO: 48 (protein)
chain: MAETCRQFNRRTHEVWNLDCGAAPAAPAPGRMKQLEDKVEELLSKNYHLENEVARLKKLVGERGGCGG
modifications: aMD4dY-PA8-GCN4-cys; DISULFID 5..20 Disulfide bridge between Cys-5 and Cys-20

— patent US20240026343A1, “METHOD FOR SCREENING DIMERIZED CYCLIC PEPTIDE” (AJINOMOTO CO., INC., priority 2021, published 2024)
